The source of these data is article PMC9911399, “Two distinct binding modes provide the RNA-binding protein RbFox with extraordinary sequence specificity”.

Where a chain is given by its changes, count along the chain named. This is one part of the list.

The labels stand for the following.
T1: RBFOX1 RRM RbFoxmut (Fox-RRM*) (Homo sapiens, UniProt Q9NWB1 109-208, R118D;E147R;N151S;E152T)
T1 sequence: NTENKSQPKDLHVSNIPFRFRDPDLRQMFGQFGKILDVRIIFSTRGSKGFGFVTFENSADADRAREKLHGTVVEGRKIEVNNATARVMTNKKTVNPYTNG

B1: AUUUUUA (DNA:RNA)
RNA: GGGAGACCGGAAUUCAGAUUGUCCAUUUUUAUUAAAUCCCGUCGUAGCCACCA
DNA 1: CAATCTGAATTCCGGTCTCCC
DNA 2: TGGTGGCTACGACGGGATT
B2: GAUUUAG (DNA:RNA)
RNA: B1 RNA with A25G, U26A, U30A, A31G
DNA 1: CAATCTGAATTCCGGTCTCCC
DNA 2: TGGTGGCTACGACGGGATT
B3: AGUAUUU (DNA:RNA)
RNA: B1 RNA with U26G, U28A, A31U
DNA 1: CAATCTGAATTCCGGTCTCCC
DNA 2: TGGTGGCTACGACGGGATT
B4: CGCAUAG (DNA:RNA)
RNA: B1 RNA with A25C, U26G, U27C, U28A, U30A, A31G
DNA 1: CAATCTGAATTCCGGTCTCCC
DNA 2: TGGTGGCTACGACGGGATT
B5: UAGUAUU (DNA:RNA)
RNA: B1 RNA with A25U, U26A, U27G, U29A, A31U
DNA 1: CAATCTGAATTCCGGTCTCCC
DNA 2: TGGTGGCTACGACGGGATT
B6: GGGUCGG (DNA:RNA)
RNA: B1 RNA with A25G, U26G, U27G, U29C, U30G, A31G
DNA 1: CAATCTGAATTCCGGTCTCCC
DNA 2: TGGTGGCTACGACGGGATT
B7: AAUUAGU (DNA:RNA)
RNA: B1 RNA with U26A, U29A, U30G, A31U
DNA 1: CAATCTGAATTCCGGTCTCCC
DNA 2: TGGTGGCTACGACGGGATT
B8: UGAGCGG (DNA:RNA)
RNA: GGGAGACCGGAAUUCAGAUUGUCCUGAGCGGUUAAAUCCCGUCGUAGCCACCA
DNA 1: CAATCTGAATTCCGGTCTCCC
DNA 2: TGGTGGCTACGACGGGATT
B9: UAAAGCU (DNA:RNA)
RNA: B8 RNA with G26A, G28A, C29G, G30C, G31U
DNA 1: CAATCTGAATTCCGGTCTCCC
DNA 2: TGGTGGCTACGACGGGATT
B10: UGUUGGA (DNA:RNA)
RNA: B1 RNA with A25U, U26G, U29G, U30G
DNA 1: CAATCTGAATTCCGGTCTCCC
DNA 2: TGGTGGCTACGACGGGATT
B11: UAUACGU (DNA:RNA)
RNA: B8 RNA with G26A, A27U, G28A, G31U
DNA 1: CAATCTGAATTCCGGTCTCCC
DNA 2: TGGTGGCTACGACGGGATT
B12: AUCAACA (DNA:RNA)
RNA: B1 RNA with U27C, U28A, U29A, U30C
DNA 1: CAATCTGAATTCCGGTCTCCC
DNA 2: TGGTGGCTACGACGGGATT
B13: AUACGCA (DNA:RNA)
RNA: B1 RNA with U27A, U28C, U29G, U30C
DNA 1: CAATCTGAATTCCGGTCTCCC
DNA 2: TGGTGGCTACGACGGGATT
B14: ACCAGUG (DNA:RNA)
RNA: B1 RNA with U26C, U27C, U28A, U29G, A31G
DNA 1: CAATCTGAATTCCGGTCTCCC
DNA 2: TGGTGGCTACGACGGGATT
B15: AGUAGGC (DNA:RNA)
RNA: B1 RNA with U26G, U28A, U29G, U30G, A31C
DNA 1: CAATCTGAATTCCGGTCTCCC
DNA 2: TGGTGGCTACGACGGGATT
B16: CUUAUUA (DNA:RNA)
RNA: B1 RNA with A25C, U28A
DNA 1: CAATCTGAATTCCGGTCTCCC
DNA 2: TGGTGGCTACGACGGGATT
B17: CUAUCGU (DNA:RNA)
RNA: B8 RNA with U25C, G26U, G28U, G31U
DNA 1: CAATCTGAATTCCGGTCTCCC
DNA 2: TGGTGGCTACGACGGGATT
B18: GUGUCAA (DNA:RNA)
RNA: B1 RNA with A25G, U27G, U29C, U30A
DNA 1: CAATCTGAATTCCGGTCTCCC
DNA 2: TGGTGGCTACGACGGGATT
B19: GGCACCA (DNA:RNA)
RNA: B8 RNA with U25G, A27C, G28A, G30C, G31A
DNA 1: CAATCTGAATTCCGGTCTCCC
DNA 2: TGGTGGCTACGACGGGATT
B20: AGUGUCC (DNA:RNA)
RNA: B1 RNA with U26G, U28G, U30C, A31C
DNA 1: CAATCTGAATTCCGGTCTCCC
DNA 2: TGGTGGCTACGACGGGATT

This assay deals with T1, RBFOX1 RRM RbFoxmut (Fox-RRM*). The assay can be described thus: EMSA; HiTS-Eq, 1 nM pool, 10 min; buffer printed only for the single-RNA assays: 10 mM Tris pH 7.5, 150 mM NaCl, 3.4 mM EDTA, 0.001% NP-40, 30 C. Particulars: tags: His6 N-terminal (pET28a); label: 5' 32P. In short, it runs like this:
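A pool of RNA with 7 randomized nucleotides, 5′-radiolabelled and with DNA-annealed flanks, was equilibrated at 1 nM for 10 min in 50 µL with purified RbFox RRM, wild type or mutant, across increasing protein concentrations. Free RNA was separated by 8% native PAGE, excised, reverse-transcribed, barcoded by PCR and sequenced. Relative association constants were obtained from read-count changes of each RNA species versus the control reaction and normalised to the cognate motif.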
For B1, the binding signal was 0.148 KA relative to UGCAUGU.

Turning to B2, the binding signal was 0.111 KA relative to UGCAUGU.

Regarding B3, the binding signal is 0.148 KA relative to UGCAUGU.

With B4, the binding signal is 0.136 KA relative to UGCAUGU.

B5: the binding signal was 0.12 KA relative to UGCAUGU.

As for B6, the binding signal was 0.137 KA relative to UGCAUGU.

With B7, the binding signal was 0.113 KA relative to UGCAUGU.

Consider B8, for which the binding signal was 0.0658 KA relative to UGCAUGU.

For the molecule B9, the binding signal is 0.0622 KA relative to UGCAUGU.

For the molecule B10, the binding signal is 0.0795 KA relative to UGCAUGU.

Consider B11, for which the binding signal was 0.0788 KA relative to UGCAUGU.

Consider B12, for which the binding signal was 0.0956 KA relative to UGCAUGU.

As to B13, the binding signal is 0.153 KA relative to UGCAUGU.

Turning to B14, the binding signal is 0.0922 KA relative to UGCAUGU.

As for B15, the binding signal is 0.097 KA relative to UGCAUGU.

With B16, the binding signal is 0.144 KA relative to UGCAUGU.

Consider B17, for which the binding signal is 0.11 KA relative to UGCAUGU.

For the molecule B18, the binding signal was 0.114 KA relative to UGCAUGU.

B19: the binding signal was 0.0788 KA relative to UGCAUGU.

Consider B20, for which the binding signal is 0.0744 KA relative to UGCAUGU.
